# Data as given in the supplement of paper PMC8728848.
# Some of the results follow.
# B1: Nictaba (Nicotiana tabacum), Q94EW1 (protein)
# chain: MQGQWIAARDLSITWVDNPQYWTWKTVDPNIEVAELRRVAWLDIYGKIETKNLIRKTSYAVYLVFKLTDNPRELERATASLRFVNEVAEGAGIEGTTVFISKKKKLPGELGRFPHLRSDGWLEIKLGEFFNNLGEDGEVEMRLMEINDKTWKSGIIVKGFDIRPN
# How the values were obtained:
# Experiment in all cases: glycan array binding signal (z-score within array); higher = stronger binding
# Details in all cases: glycan notation: IUPAC condensed, linker removed
# GlcNAc(b1-3)GalNAc = biological target: GlcNAc(b1-3)GalNAc
# How it was run: (§1)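 The binding signal is a Z-score computed within each array. Data were drawn from 3228 arrays in the Consortium for Functional Glycomics database, restricted to those with a known protein sequence. Scores were averaged over arrays of the same protein sequence at different concentrations or buffers, and over linkers, and negative values can be taken as non-binding.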
# GlcNAc(b1-3)Man = biological target: GlcNAc(b1-3)Man
# How it was run: as §1
# [1] = biological target: GlcNAc(b1-3)[GlcNAc(b1-4)][GlcNAc(b1-6)]GlcNAc
# How it was run: as §1
# [2] = biological target: GlcNAc(b1-3)[GlcNAc(b1-6)]Gal(b1-4)GlcNAc
# How it was run: as §1
# [3] = biological target: GlcNAc(b1-3)[GlcNAc(b1-6)]GalNAc
# How it was run: as §1
# [4] = biological target: GlcNAc(b1-3)[GlcNAc(b1-6)]GlcNAc
# How it was run: as §1
# [5] = biological target: GlcNAc(b1-4)Gal(b1-4)GlcNAc
# How it was run: as §1
# GlcNAc(b1-4)GlcNAc = biological target: GlcNAc(b1-4)GlcNAc
# How it was run: as §1
# [6] = biological target: GlcNAc(b1-4)GlcNAc(b1-4)GlcNAc
# How it was run: as §1
# [7] = biological target: GlcNAc(b1-4)GlcNAc(b1-4)GlcNAc(b1-4)GlcNAc(b1-4)GlcNAc
# How it was run: as §1
# [8] = biological target: GlcNAc(b1-4)GlcNAc(b1-4)GlcNAc(b1-4)GlcNAc(b1-4)GlcNAc(b1-4)GlcNAc
# How it was run: as §1
# [9] = biological target: GlcNAc(b1-4)[GlcNAc(b1-6)]GalNAc
# How it was run: as §1
# [10] = biological target: GlcNAc(b1-6)Gal(b1-4)GlcNAc
# How it was run: as §1
# GlcNAc(b1-6)GalNAc = biological target: GlcNAc(b1-6)GalNAc
# How it was run: as §1
# GlcNAc3Prop(b1-4)GlcNAc = biological target: GlcNAc3Prop(b1-4)GlcNAc
# How it was run: as §1
# [11] = biological target: GlcNAc6S(b1-3)Gal(b1-4)GlcNAc
# How it was run: as §1
# Kdn(a2-3)Gal(b1-3)GalNAc = biological target: Kdn(a2-3)Gal(b1-3)GalNAc
# How it was run: as §1
# Kdn(a2-3)Gal(b1-3)GlcNAc = biological target: Kdn(a2-3)Gal(b1-3)GlcNAc
# How it was run: as §1
# Kdn(a2-3)Gal(b1-4)Glc = biological target: Kdn(a2-3)Gal(b1-4)Glc
# How it was run: as §1
# Kdn(a2-3)Gal(b1-4)GlcNAc = biological target: Kdn(a2-3)Gal(b1-4)GlcNAc
# How it was run: as §1
# [12] = biological target: Kdn(a2-3)Gal(b1-4)[Fuc(a1-3)]GlcNAc
# How it was run: as §1
# Kdn(a2-6)Gal(b1-4)GlcNAc = biological target: Kdn(a2-6)Gal(b1-4)GlcNAc
# How it was run: as §1
# [13] = biological target: Man(a1-2)Man(a1-2)Man(a1-3)Man
# How it was run: as §1
# [14] = biological target: Man(a1-2)Man(a1-2)Man(a1-3)[Man(a1-2)Man(a1-3)[Man(a1-2)Man(a1-6)]Man(a1-6)]Man(b1-4)GlcNAc(b1-4)GlcNAc
# How it was run: as §1
# [15] = biological target: Man(a1-2)Man(a1-2)Man(a1-3)[Man(a1-2)Man(a1-6)[Man(a1-3)]Man(a1-6)]Man(b1-4)GlcNAc(b1-4)GlcNAc
# How it was run: as §1
# [16] = biological target: Man(a1-2)Man(a1-2)Man(a1-6)[Man(a1-3)]Man
# How it was run: as §1
# Man(a1-2)Man(a1-3)Man = biological target: Man(a1-2)Man(a1-3)Man
# How it was run: as §1
# [17] = biological target: Man(a1-2)Man(a1-3)[Man(a1-2)Man(a1-6)]Man
# How it was run: as §1
# [18] = biological target: Man(a1-2)Man(a1-3)[Man(a1-2)Man(a1-6)]Man(a1-6)[Man(a1-2)Man(a1-2)Man(a1-3)]Man
# How it was run: as §1
# [19] = biological target: Man(a1-2)Man(a1-3)[Man(a1-2)Man(a1-6)]Man(a1-6)[Man(a1-2)Man(a1-2)Man(a1-3)]Man(b1-4)GlcNAc(b1-4)GlcNAc
# How it was run: as §1
# [20] = biological target: Man(a1-2)Man(a1-3)[Man(a1-3)[Man(a1-6)]Man(a1-6)]Man(b1-4)GlcNAc(b1-4)GlcNAc
# How it was run: as §1
# [21] = biological target: Man(a1-2)Man(a1-3)[Man(a1-6)]Man(a1-6)[Man(a1-2)Man(a1-3)]Man(b1-4)GlcNAc(b1-4)GlcNAc
# How it was run: as §1
# [22] = biological target: Man(a1-2)Man(a1-6)[Man(a1-3)]Man(a1-6)[Man(a1-2)Man(a1-2)Man(a1-3)]Man
# How it was run: as §1
# [23] = biological target: Man(a1-2)Man(a1-6)[Man(a1-3)]Man(a1-6)[Man(a1-2)Man(a1-2)Man(a1-3)]Man(b1-4)GlcNAc(b1-4)GlcNAc
# How it was run: as §1
# Man(a1-3)[Man(a1-6)]Man = biological target: Man(a1-3)[Man(a1-6)]Man
# How it was run: as §1
# [24] = biological target: Man(a1-3)[Man(a1-6)]Man(a1-6)[Man(a1-2)Man(a1-3)]Man(b1-4)GlcNAc(b1-4)GlcNAc
# How it was run: as §1
# [25] = biological target: Man(a1-3)[Man(a1-6)]Man(a1-6)[Man(a1-3)]Man
# How it was run: as §1
# [26] = biological target: Man(a1-3)[Man(a1-6)]Man(a1-6)[Man(a1-3)]Man(b1-4)GlcNAc(b1-4)GlcNAc
# How it was run: as §1
# [27] = biological target: Man(a1-3)[Man(a1-6)]Man(b1-4)GlcNAc(b1-4)GlcNAc
# How it was run: as §1
# [28] = biological target: Man(a1-3)[Man(a1-6)]Man(b1-4)GlcNAc(b1-4)[Fuc(a1-6)]GlcNAc
# How it was run: as §1
# Man(a1-6)Man = biological target: Man(a1-6)Man
# How it was run: as §1
# Man(b1-4)GlcNAc = biological target: Man(b1-4)GlcNAc
# How it was run: as §1
# MurNAc(b1-4)GlcNAc = biological target: MurNAc(b1-4)GlcNAc
# How it was run: as §1
# Neu5Ac(a2-3)Gal = biological target: Neu5Ac(a2-3)Gal
# How it was run: as §1
# [29] = biological target: Neu5Ac(a2-3)Gal(b1-3)GalNAc
# How it was run: as §1
binder,measurement,setting,value
B1,glycan array binding signal (z-score),GlcNAc(b1-3)GalNAc,-0.226
same,glycan array binding signal (z-score),GlcNAc(b1-3)Man,-0.291
same,glycan array binding signal (z-score),[1],-0.316
same,glycan array binding signal (z-score),[2],-0.269
same,glycan array binding signal (z-score),[3],-0.25
same,glycan array binding signal (z-score),[4],-0.323
same,glycan array binding signal (z-score),[5],-0.247
same,glycan array binding signal (z-score),GlcNAc(b1-4)GlcNAc,-0.293
same,glycan array binding signal (z-score),[6],2.26
same,glycan array binding signal (z-score),[7],2.98
same,glycan array binding signal (z-score),[8],2.81
same,glycan array binding signal (z-score),[9],-0.288
same,glycan array binding signal (z-score),[10],-0.286
same,glycan array binding signal (z-score),GlcNAc(b1-6)GalNAc,-0.277
same,glycan array binding signal (z-score),GlcNAc3Prop(b1-4)GlcNAc,-0.227
same,glycan array binding signal (z-score),[11],-0.297
same,glycan array binding signal (z-score),Kdn(a2-3)Gal(b1-3)GalNAc,-0.293
same,glycan array binding signal (z-score),Kdn(a2-3)Gal(b1-3)GlcNAc,-0.283
same,glycan array binding signal (z-score),Kdn(a2-3)Gal(b1-4)Glc,-0.244
same,glycan array binding signal (z-score),Kdn(a2-3)Gal(b1-4)GlcNAc,-0.13
same,glycan array binding signal (z-score),[12],-0.283
same,glycan array binding signal (z-score),Kdn(a2-6)Gal(b1-4)GlcNAc,-0.261
same,glycan array binding signal (z-score),[13],-0.29
same,glycan array binding signal (z-score),[14],3.93
same,glycan array binding signal (z-score),[15],4
same,glycan array binding signal (z-score),[16],-0.323
same,glycan array binding signal (z-score),Man(a1-2)Man(a1-3)Man,-0.308
same,glycan array binding signal (z-score),[17],-0.268
same,glycan array binding signal (z-score),[18],-0.275
same,glycan array binding signal (z-score),[19],2.14
same,glycan array binding signal (z-score),[20],4.38
same,glycan array binding signal (z-score),[21],4.07
same,glycan array binding signal (z-score),[22],-0.321
same,glycan array binding signal (z-score),[23],4.83
same,glycan array binding signal (z-score),Man(a1-3)[Man(a1-6)]Man,-0.279
same,glycan array binding signal (z-score),[24],6.51
same,glycan array binding signal (z-score),[25],-0.261
same,glycan array binding signal (z-score),[26],4.21
same,glycan array binding signal (z-score),[27],3.44
same,glycan array binding signal (z-score),[28],2.71
same,glycan array binding signal (z-score),Man(a1-6)Man,-0.252
same,glycan array binding signal (z-score),Man(b1-4)GlcNAc,-0.277
same,glycan array binding signal (z-score),MurNAc(b1-4)GlcNAc,-0.388
same,glycan array binding signal (z-score),Neu5Ac(a2-3)Gal,-0.261
same,glycan array binding signal (z-score),[29],-0.288
